Measurements as given in a compilation of properties of binary mixtures (doi:10.1016/j.molliq.2016.11.066).
Some of these densities may be calculated back from excess volumes.

Assay: xn = mol fraction of the nth substance listed
Details: 101 kPa

COCCO + CCCC[n+]1ccn(C)c1.F[P-](F)(F)(F)(F)F
x2 = 0
Details | mass density [kg/m3]
298.15 K | 960.3
303.15 K | 955.7
308.15 K | 951.1
313.15 K | 946.4
318.15 K | 941.7
323.15 K | 936.9

CCCC[n+]1ccn(C)c1.F[P-](F)(F)(F)(F)F + COCCO
mass density [kg/m3]
Details | x1 = 0.0966 | x1 = 0.1943 | x1 = 0.2887 | x1 = 0.3979 | x1 = 0.4792 | x1 = 0.5943 | x1 = 0.6753 | x1 = 0.8101 | x1 = 0.8849 | x1 = 1
298.15 K | 1054.2 | 1125.7 | – | 1227.1 | 1256.1 | – | 1309.6 | 1337.1 | – | 1367.2
303.15 K | 1049.7 | 1121.2 | 1174.5 | – | 1251.8 | 1285.5 | 1305.4 | 1332.9 | – | 1363
308.15 K | 1045.2 | 1116.7 | 1170.1 | – | 1247.4 | 1281.3 | – | 1328.7 | 1341.6 | –
313.15 K | 1040.7 | 1112.3 | 1165.6 | 1214 | 1243.1 | 1277 | – | 1324.5 | 1337.4 | 1354.5
318.15 K | 1036.1 | 1107.8 | 1161.2 | – | 1238.7 | 1272.7 | – | 1320.2 | 1333.2 | –
323.15 K | 1031.5 | 1103.3 | 1156.7 | 1205.1 | 1234.3 | 1268.4 | 1288.3 | 1316 | – | 1346
